{"source": "PubChem BioAssay AID588855", "about": "(National Center for Advancing Translational Sciences (NCATS), 2011)", "note": "In all, about 410,000 compounds went through this assay and about 5,000 (1.2%) were called active. Inconclusive means that the source gave no clear call. Such entries were picked first, then a sample of the others. Calls come from the whole dose curve; as a rule, active = well fitted inhibition curve with a large enough effect; inconclusive = small, poorly fitted or top-dose-only effect; inactive = no such curve, though single readings can be large or run the other way. Potencies of inconclusive entries are doubtful fits and often do not repeat."}
{"experiment": "qHTS for Inhibitors of TGF-b; note: nearly all actives have a fitted effect of over 65% in size; note: potency is the fitted concentration of half-maximal effect; tags give direction and shape of the fitted curve", "conditions": "HepG2 CAGA-GFP TGF-b/SMAD3 reporter, GFP fluorescence, 18 h, TGF-beta stimulated, 500 pg/mL final; series mostly up to 46.1 µM", "outline": "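Per well, imaged GFP fluorescence of HEPG2 CAGA-GFP cells gives the signal; cells get compound, then TGF-beta (500 pg/mL final), 18 h at 37 degrees C; %Activity versus -TGF-beta and +DMSO controls.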"}
{"compound": "O=C(COC(=O)C1(c2ccc(Cl)cc2)CCCC1)NC1CCS(=O)(=O)C1", "note": "(configuration not stated)", "Potency": "inactive"}
{"compound": "CC(Oc1ccc(Cl)cc1Cl)C(=O)NC1=NN(c2ccccc2)C(=O)C1", "note": "(configuration not stated)", "Potency": "active: 17.8 µM"}
{"compound": "CSc1cccc(NC(=O)CCC(=O)O)c1", "Potency": "inconclusive: 35.5 µM [inhibitor, single point]"}
{"compound": "OC(COC(c1ccc(F)cc1)c1ccc(F)cc1)CN1CCCC(C(F)(F)F)C1", "note": "(configuration not stated)", "Potency": "inactive"}
{"compound": "O=C(NC1CCCCC1)C1CCCN(S(=O)(=O)c2cccc3cccnc23)C1", "note": "(configuration not stated)", "Potency": "inconclusive: 10 µM [inhibitor, partial curve, poor fit]"}
{"compound": "O=C(NCc1ccc(F)cc1)c1cnc(N2CCOCC2)c2ccccc12", "Potency": "inactive"}
{"compound": "O=C(O)C1CC=C(Cl)CC1C(=O)NCC1OCCc2ccccc21", "note": "(configuration not stated)", "Potency": "inconclusive: 0.708 µM [inhibitor, partial curve, poor fit]"}
{"compound": "O=C1CCC/C1=C\\c1ccccc1", "Potency": "inactive"}
{"compound": "CCOc1ccc(S(=O)(=O)N2CCOCC2)cc1NC(=O)CSCC(=O)Nc1cccc(C)c1", "Potency": "inconclusive: 5.62 µM [inhibitor, single point]"}
{"compound": "O=C(O)c1ccc(/C=N/N2CCN(C3c4ccccc4-c4ccccc43)CC2)cc1", "Potency": "inconclusive: 6.31 µM [inhibitor, single point]"}
{"compound": "O=C(Nc1ccc2c(c1)OCCO2)C1CCCN1S(=O)(=O)c1cccc2cccnc12", "note": "(configuration not stated)", "Potency": "inconclusive: 35.5 µM [inhibitor, single point]"}
{"compound": "O=C(NCc1ccc(F)cc1)C1CCN(S(=O)(=O)c2ccc3c(c2)CCCN3C(=O)C2CCC2)CC1", "Potency": "inconclusive: 17.8 µM [inhibitor, single point]"}
{"compound": "CC(=NNC(=S)N1CC2CCC(CC2)C1)c1ccncn1", "Potency": "inconclusive: 0.794 µM [inhibitor, partial curve, poor fit]"}
{"compound": "Cc1ccc(S(=O)(=O)c2nc(-c3cccs3)oc2NCCCN(C)C)cc1", "Potency": "inconclusive: 6.31 µM [inhibitor, single point]"}
{"compound": "C(=N\\n1cnnc1)/c1nc2ccccc2[nH]1", "Potency": "inactive"}
{"compound": "Cc1ccccc1Nc1sc(C(=O)c2ccc(F)cc2)c(N)c1C(=O)NCCc1ccccc1", "Potency": "inconclusive: 15.8 µM [inhibitor, partial curve, poor fit]"}
{"compound": "O=C(NC(c1ccc(F)cc1)c1ccc2ccccc2n1)C1CCN(Cc2cccc(C(F)(F)F)c2)CC1", "note": "(configuration not stated)", "Potency": "inconclusive: 10 µM [inhibitor, partial curve, poor fit]"}
{"compound": "Cc1c(C(=O)N/N=C/c2cccnc2)sc(N)c1C#N", "Potency": "active: 10 µM"}
{"compound": "CCOC(=O)C1=NN(C(=O)c2ccc(OC)cc2)C(O)(c2ccc(Cl)cc2)C1", "note": "(configuration not stated)", "Potency": "inconclusive: 20 µM [inhibitor, single point]"}
{"compound": "COc1cc(S(=O)(=O)Nc2ccccc2C(=O)N2CCCC2)ccc1NC(C)=O", "Potency": "inactive"}
{"compound": "Cc1ccc(C(=O)c2oc3ccccc3c2NC(=O)c2cc(-c3ccc(Cl)cc3)on2)cc1", "Potency": "inactive"}
{"compound": "O=C(Nc1cccc2ccccc12)N(c1ccccc1)c1ccccc1", "Potency": "inconclusive: 25.1 µM [inhibitor, single point]"}
{"compound": "O=C(N=C1SC2CS(=O)(=O)CC2N1c1ccccc1Cl)C1CCCO1", "note": "(configuration not stated)", "Potency": "inactive"}
{"compound": "Nc1nc(CCl)nc(Nc2ccccc2)n1", "Potency": "inconclusive: 35.5 µM [inhibitor, single point]"}
{"compound": "Cc1ccc2ncc(S(=O)(=O)c3ccccc3)c(N3CCCCC3C)c2c1", "note": "(configuration not stated)", "Potency": "inconclusive: 11.2 µM [inhibitor, partial curve, poor fit]"}
{"compound": "COc1ccc(-c2cn[nH]c2-c2ccc(OCc3ccc([N+](=O)[O-])cc3)cc2O)cc1", "Potency": "inconclusive: 11.2 µM [inhibitor, partial curve, poor fit]"}
{"compound": "CC(C)(C)NC(=O)Cc1ccc(S(=O)(=O)N2CCCC2)s1", "Potency": "inconclusive: 0.316 µM [inhibitor, full curve, poor fit]"}
{"compound": "CC(C)N(Cc1ccccc1)C(=O)CCc1ccccc1", "Potency": "inactive"}
{"compound": "N/C(=N\\OC(=O)/C=C/c1ccccc1Cl)c1ccncc1", "Potency": "inactive"}
{"compound": "O=C(N/N=C\\c1ccc([N+](=O)[O-])o1)c1cncc(Br)c1", "Potency": "inconclusive: 11.2 µM [inhibitor, partial curve, poor fit]"}
{"compound": "Nc1ncnc2c1ncn2[C@@H]1O[C@H](CNCc2c(OCc3ccccc3F)ccc3ccccc23)[C@@H](O)[C@H]1O", "Potency": "inconclusive: 22.4 µM [inhibitor, single point]"}
{"compound": "Cc1cc2ccccn2c1C(=O)c1ccc(N/N=C/c2ccc(C(=O)O)cc2)c([N+](=O)[O-])c1", "Potency": "inconclusive: 20 µM [inhibitor, single point]"}
{"compound": "O=C(CSc1nnc(-c2cccs2)o1)OCc1ccccc1", "Potency": "inconclusive: 11.2 µM [inhibitor, single point]"}
{"compound": "CSc1ccccc1NC(=O)CN(C)CC(=O)Nc1ccc(Cl)cc1F", "Potency": "inactive"}
{"compound": "CN(CCc1ccccn1)C(=O)CCC1CCCN(C(=O)CCOc2ccccc2)C1", "note": "(configuration not stated)", "Potency": "inactive"}
{"compound": "Cc1c(NC(=O)CSc2ccc(Cl)cc2)cccc1-c1nc2ncccc2o1", "Potency": "inconclusive: 14.1 µM [inhibitor, partial curve, poor fit]"}
{"compound": "COc1ccc(C(=O)N2CCCC(Nc3ccc(F)c(F)c3)C2)c(OC)n1", "note": "(configuration not stated)", "Potency": "inconclusive: 6.31 µM [inhibitor, single point]"}
{"compound": "CC(C)(C)[C@H]1COC(=O)[C@H](NC(=O)OCC2c3ccccc3-c3ccccc32)C/C=C\\C[C@@H](CC(=O)N[C@@H](CO)Cc2ccccc2)C(=O)N1", "Potency": "inconclusive: 35.5 µM [inhibitor, single point]"}
{"compound": "COc1ccc(NS(=O)(=O)c2ccc3c(c2)Cc2ccccc2-3)cn1", "Potency": "inconclusive: 12.6 µM [inhibitor, single point]"}
{"compound": "Cc1nc(-c2ccc(S(=O)(=O)N3CCN(c4cccc(Cl)c4)CC3)cc2)co1", "Potency": "inconclusive: 15.8 µM [inhibitor, single point]"}
{"compound": "Cc1ccc(C)c(N2CCN(S(=O)(=O)CC34CCC(CC3=O)C4(C)C)CC2)c1", "note": "(configuration not stated)", "Potency": "inconclusive: 35.5 µM [inhibitor, partial curve, poor fit]"}
{"compound": "COc1cc(C)nc(SCC(N)=O)n1", "Potency": "inconclusive: 0.708 µM [inhibitor, partial curve, poor fit]"}
{"compound": "Oc1ccc(Br)cc1/C=N/n1cnc2ccccc21", "Potency": "inconclusive: 10 µM [inhibitor, single point]"}
{"compound": "Fc1ccc(Nc2nc(N/N=C/c3ccco3)nc(N3CCCCC3)n2)cc1", "Potency": "inactive"}
{"compound": "CC1CCc2sc(C(=O)OCC(=O)NCc3ccc(F)cc3)cc2C1", "note": "(configuration not stated)", "Potency": "inactive"}
{"compound": "CC(C)NC(=O)COc1ccc(S(=O)(=O)N2CCCC2)cc1", "Potency": "inconclusive: 0.112 µM [inhibitor, full curve, poor fit]"}
{"compound": "COc1ccc(NS(=O)(=O)c2ccc(NC(=O)C3CC3)cc2)cc1", "Potency": "inactive"}
{"compound": "CC(=O)Nc1ccc(-c2ccnc3c2CC(C)(C(=O)Nc2cccc(OC(F)(F)F)c2)O3)cc1", "note": "(configuration not stated)", "Potency": "inconclusive: 35.5 µM [inhibitor, single point]"}
{"compound": "Cc1ccccc1C(=O)Nc1sc(C)c(C)c1C(=O)c1ccccc1", "Potency": "inconclusive: 11.2 µM [inhibitor, partial curve, poor fit]"}
{"compound": "Cc1oc(C(C)(C)C)cc1C(=O)NC1CCN(Cc2ccccc2)CC1", "Potency": "inactive"}
{"compound": "CCN(Cc1ccncc1)Cc1cn(C)nc1-c1ccc(Oc2ccccc2)cc1", "Potency": "inconclusive: 12.6 µM [inhibitor, single point]"}
{"compound": "O=C(c1[nH]c(C(F)(F)F)nc1-c1ccccc1)N1CCN(c2ccncc2)CC1", "Potency": "inactive"}
{"compound": "Cc1cc(C)c2c(=O)cc(C(=O)Nc3sc4c(c3C#N)CCCC4)oc2c1", "Potency": "inactive"}
{"compound": "O=C(NCc1ccc(F)cc1)c1ccc2c(c1)N(Cc1c(F)cccc1Cl)C(=O)CS2", "Potency": "inconclusive: 6.31 µM [inhibitor, single point]"}
{"compound": "O=C(O)c1ccc(C(=O)O)c(C(=O)c2ccc(NC(=O)c3ccccc3)cc2)c1", "Potency": "inactive"}
{"compound": "CCOC(=O)/C(=N\\Nc1ccccc1)P(=O)(c1ccccc1)c1ccccc1", "Potency": "inconclusive: 11.2 µM [inhibitor, single point]"}
{"compound": "CCCc1ccc(S(=O)(=O)N2CCN(C(C)C(=O)NCc3ccc(OC)cc3)CC2)cc1", "note": "(configuration not stated)", "Potency": "inconclusive: 28.2 µM [inhibitor, single point]"}
{"compound": "CC1=C(C(=O)N(C(C)C)C(C)C)CC(CC(=O)NCC2CCCCC2)C(=O)N1Cc1ccccc1", "note": "(configuration not stated)", "Potency": "inconclusive: 12.6 µM [inhibitor, partial curve, poor fit]"}
{"compound": "O=C(N/N=C/c1ccc(OC2CSC2)cc1)c1ccc(CN2CCOCC2)cc1", "Potency": "inactive"}
{"compound": "CCC(=O)Nc1ccc(S(=O)(=O)Nc2cccc(C)c2)cc1OC", "Potency": "inactive"}
{"compound": "COc1cccc(-c2csc(N3CCN(C(=S)Nc4cccc(Cl)c4)CC3)n2)c1", "Potency": "inconclusive: 14.1 µM [inhibitor, partial curve, poor fit]"}
{"compound": "CC(C)Cc1nc(N2CCN(C(=O)c3ccco3)CC2)c(C#N)c2c1CCCC2", "Potency": "inconclusive: 28.2 µM [inhibitor, single point]"}
{"compound": "COc1cccc(C2SCC(=O)N2c2ccc(C)cc2)c1OC", "note": "(configuration not stated)", "Potency": "inconclusive: 10 µM [inhibitor, partial curve]"}
{"compound": "COc1cccc(N=Nc2ccc3cccnc3c2O)c1", "Potency": "inconclusive: 3.98 µM [inhibitor, single point]"}
{"compound": "CCc1ccc(OCC(=O)Nc2ccc3[nH]ncc3c2)cc1", "Potency": "inconclusive: 35.5 µM [inhibitor, partial curve, poor fit]"}
{"compound": "CCc1nn2c(=O)cc(COC(=O)c3cccc(NC(=O)c4ccccc4C)c3)nc2s1", "Potency": "inactive"}
{"compound": "Clc1cc(Cl)c2nc(N3CCOCC3)sc2c1", "Potency": "inconclusive: 6.31 µM [inhibitor, single point]"}
